Hit rate of the full screen: of about 310,000 compounds, about 14,000 (4.5%) showed an effect of 50% or more. Effects have a minus sign here. Some of the results follow.
Each compound was assayed against human ether-à-go-go-related gene (hERG) potassium channel (human, UniProt Q12809) (assay: primary screen, population patch clamp on CHO cells stably expressing hERG).
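Also: peak tail current of the secondary pulse compared with the same well before compound.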

Chain of human ether-à-go-go-related gene (hERG) potassium channel (Q12809 whole entry, looked up): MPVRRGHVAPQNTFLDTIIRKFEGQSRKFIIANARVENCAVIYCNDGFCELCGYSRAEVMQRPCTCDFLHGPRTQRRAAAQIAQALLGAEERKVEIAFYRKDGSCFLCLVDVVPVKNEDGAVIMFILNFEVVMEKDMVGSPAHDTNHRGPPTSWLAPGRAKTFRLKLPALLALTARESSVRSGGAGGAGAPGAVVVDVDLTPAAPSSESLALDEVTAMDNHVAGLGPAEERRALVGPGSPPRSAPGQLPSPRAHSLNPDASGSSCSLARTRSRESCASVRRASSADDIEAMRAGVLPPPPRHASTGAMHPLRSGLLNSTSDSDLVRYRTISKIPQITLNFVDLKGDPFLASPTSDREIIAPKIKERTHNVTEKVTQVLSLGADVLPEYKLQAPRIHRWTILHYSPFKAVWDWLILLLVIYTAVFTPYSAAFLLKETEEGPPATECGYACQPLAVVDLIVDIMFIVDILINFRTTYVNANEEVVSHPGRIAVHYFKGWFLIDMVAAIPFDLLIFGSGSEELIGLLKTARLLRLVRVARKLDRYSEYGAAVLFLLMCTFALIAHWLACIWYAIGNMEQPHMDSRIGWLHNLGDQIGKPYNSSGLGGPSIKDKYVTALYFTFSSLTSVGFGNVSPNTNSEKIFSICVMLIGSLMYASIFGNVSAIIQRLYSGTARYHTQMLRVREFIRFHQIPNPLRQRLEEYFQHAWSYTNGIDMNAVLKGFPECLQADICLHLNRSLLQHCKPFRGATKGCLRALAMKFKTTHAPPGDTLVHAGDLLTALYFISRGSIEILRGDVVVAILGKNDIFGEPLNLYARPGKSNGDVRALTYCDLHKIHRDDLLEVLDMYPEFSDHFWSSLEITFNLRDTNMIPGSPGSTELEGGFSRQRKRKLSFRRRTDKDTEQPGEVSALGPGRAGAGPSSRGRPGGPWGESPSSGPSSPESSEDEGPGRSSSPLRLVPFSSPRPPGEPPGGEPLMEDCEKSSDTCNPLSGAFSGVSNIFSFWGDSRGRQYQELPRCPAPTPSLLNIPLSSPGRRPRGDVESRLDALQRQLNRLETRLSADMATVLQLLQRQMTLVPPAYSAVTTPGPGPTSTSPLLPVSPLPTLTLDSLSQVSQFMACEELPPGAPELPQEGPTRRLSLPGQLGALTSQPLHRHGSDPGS

SMILES | hERG current change (%, negative = inhibition) at 10uM
CCOC(=O)c1sc2ccc(S(=O)(=O)N3CC(C)CC(C)C3)cc2c1N (stereo not drawn) | 7.29%
Cc1nc(N2CCN(c3ccccn3)CC2)c2c(C)c(C(=O)Nc3ccc(F)cc3Cl)sc2n1 | -41.6%
Cc1nc(NC(=O)CN2CCOCC2)sc1C(=O)N(C)C | 15.3%
Cc1ccc(C(C)n2cc(C(=O)NCCN3CCN(C)CC3)nn2)cc1 (stereo not drawn) | 0.955%
CCO[C@@H]1c2c(ccc3ccc(=O)oc23)OC(C)(C)[C@H]1O | 27.4%
COc1cc(C)c(/C=C(\C#N)C(=O)Nc2ccc(C)cc2)cc1C(C)C | 11.1%
Fc1cccc(/C=N/Nc2ccc(Cl)nn2)c1 | 7.33%
CN(C)c1ccc(NC(=O)CSc2nc(N)c(C(=O)Nc3ccc(N(C)C)cc3)s2)cc1 | 14.2%
CCCCN(C)CCCNC(=O)c1cccc(N2CCCC2=O)c1 | 11.5%
CCOC(=O)CN1NC2(CCCCCC2)NC1=S | 9.28%
CCOC(=O)c1cc2c(N)c(C(=O)c3ccc(Br)cc3)sc2[nH]c1=O | -4.56%
O=c1c2cc(Br)ccc2nc2n1CCCCC2 | -35.8%
c1csc(C2=NNC(=NC3CCCCC3)SC2)c1 | 2.39%
CN(CCOc1ccccc1)C(=O)c1cc(-c2ccco2)nc2ccccc12 | -23.1%
C/C(=N\NC(=O)c1ccc(CSc2nncn2C)cc1)c1cccs1 | 2.42%
O=C(N1CCN(c2ccc(F)cc2)CC1)C12CC3CC(CC(C3)C1)C2 | 5.05%
Fc1ccc(OCc2nnc(SCCN3CCOCC3)o2)cc1 | -16.1%
COCCCNC(=O)COc1cc2c(c3oc(=O)c(C)c(C)c13)CCC(C)(C)O2 | -10.2%
C#Cc1ccc([C@@H]2C=C(C(=O)OCC=C)O[C@H](OCC)[C@H]2CCCO)cc1 | -27.6%
CCc1ccc(-n2c(O)cnc2Nc2nc(C)cc(C)n2)cc1 | -8.25%
Cc1c(C(=O)Nc2ccccn2)oc2ccccc12 | -19.8%
CCc1ccc(Nc2nnc(SCc3cc(=O)n4ccsc4n3)s2)cc1 | -11.5%

SMILES | hERG current change (%, negative = inhibition) at 10uM
O=C(NCc1cccc(Cl)c1)c1cc(COc2ccc3ncccc3c2)on1 | -4.85%
CCCCSc1cc(C)nc2ncnn12 | -6.82%
CC12CC3CC(C)(C1)CC(C(=O)NNC(=O)c1ccncc1)(C3)C2 | 0.638%
O=C(C1CC1)N1CCc2[nH]c3ccccc3c2C1 | 12%
Cc1ccc(C2CN=NC23CCc2ccccc2C3=O)cc1 (stereo not drawn) | -2.87%
O=C(CCl)Nc1ccccc1Sc1ccc(Cl)cc1 | -7.64%
Cn1cnc2c(cnn2-c2ccccc2)c1=O | 10.6%
O=C(C1c2ccccc2C(=O)N2CCc3ccccc3C12)N1CCN(Cc2ccccc2)CC1 (stereo not drawn) | -9.6%
Cc1ccc(C(C(=O)NCC2CCCO2)N(C(=O)c2snc(C(N)=O)c2N)c2ccc(C)c(C)c2)o1 (stereo not drawn) | -9.57%
CSc1ccc(CNC(=O)Cn2nc(C)c3c(C)n(-c4ccc(C)cc4)nc3c2=O)cc1 | -15%
CCCCNC(=O)C1CCN(c2nc(OC)nc(OC)n2)CC1 | -10.6%
COc1ccc(CNC(=O)c2ccc(-c3ccccc3)cc2)cc1OC | 0.777%
CC(=O)C1=C(O)CC(c2ccccc2)CC1=NCCc1c(C)[nH]c2ccccc12 (stereo not drawn) | 0.412%
COc1ccc(C(O)c2nccn2Cc2ccccc2)cc1OC (stereo not drawn) | -9%
CCOC(=O)COc1ccc2c(c1)C(=O)CC(C)(C)O2 | 1.78%
Cc1ccc(C(=O)NC2CCC(C)CC2)o1 (stereo not drawn) | 0.0261%
O=C(Nc1ccc(N2CCCC2)cc1)c1cc(Br)ccc1Cl | 14.2%
CCCCOCCCNS(=O)(=O)c1ccccc1 | 2.77%
COc1ccc(C(=O)Nc2nnc(-c3cccs3)s2)cc1 | 21%
C=C1/C(=C\C=C2/CCC[C@]3(C)[C@@H]([C@H](C)/C=C/[C@@H](O)C4CC4)CC[C@@H]23)C[C@@H](O)C[C@@H]1O | -19.9%
Cl.N[C@@H]1C[C@H]1c1ccccc1 | 14%
Cc1ccc2nsnc2c1NC(=O)c1cccnc1Cl | 11.6%

SMILES | hERG current change (%, negative = inhibition) at 10uM
CSc1ccc(C2C(C(=O)c3ccco3)=C(O)C(=O)N2c2nnc(SC)s2)cc1 (stereo not drawn) | 13.4%
COc1ccc(Br)c(C(=O)NCC2CCCCC2)c1 | 0.58%
O=C1[C@H]2[C@@H](c3ccc(Cl)cc3)N3C(=O)N(c4cccc(Cl)c4)C(=O)[C@@]3(Cc3ccc(Cl)cc3)[C@H]2C(=O)N1C1CCCCC1 | 22%
O=C(NCc1ccc2c(c1)OCO2)c1ccc2c(=O)n(C3CCCC3)c(=O)[nH]c2c1 | 4.61%
CCC1CCCCN1CCCNC(=O)c1ccc2c(c1)c(C)c(C)n2CC (stereo not drawn) | -38.8%
Cc1cc(C)c(NC(=S)N2CCC(N(C)CC3CCCO3)CC2)c(C)c1 (stereo not drawn) | 6.06%
Cc1n[nH]c(C)c1CNCc1c(C(=O)N2CCCCCCC2)nc2ccc(Cl)cn12 | 8.07%
CC1(CC(=O)N/N=C/c2ccc(OCc3ccc(Cl)cc3Cl)cc2)OCCCO1 | 5.38%
CC(=O)Nc1ccc(C2=NN(C)C(=NCc3ccccc3)SC2)cc1 | 9.11%
COc1cc(C(=O)N(CCN(C)C)CC2CCCN(Cc3ccccc3F)C2)ccc1C (stereo not drawn) | -27%
Cc1cccc(NC(=O)CNC(=O)c2cccc(S(=O)(=O)NCc3cccs3)c2)c1C | 2.53%
COc1cc2c(c(OC)c1CC=C(C)C)C[C@H](c1ccc(O)cc1O)CO2 | 8.09%
N#CC(c1ccc(Cl)cc1)c1ccc2c(C(F)(F)F)cc(C(F)(F)F)nc2n1 (stereo not drawn) | 6.7%
COC(=O)N1c2ccccc2CCc2ccccc21 | 21.5%
O=C(c1ccc2c(c1)OCO2)C1CCCN(Cc2ccccc2OC(F)F)C1 (stereo not drawn) | -58.8%
O=C(COC(=O)c1cccc(S(=O)(=O)N2CCOCC2)c1)Nc1ccc(Cl)cn1 | -61.1%
O=C(CSc1nc(Cc2ccccc2)nc2ccccc12)Nc1nc2c(s1)CCCC2 | 17.8%
Cc1cc(=O)oc2cc(OC(=O)c3cncc(Br)c3)ccc12 | 11.7%
COc1ccc(C2/C=C\CN(C(=O)c3ccc(C)cc3)CC(=O)N2Cc2ccc(F)cc2)cc1 (stereo not drawn) | -43.7%
O=C(COc1cccc(C(F)(F)F)c1)NCC(c1cccs1)N1CCOCC1 (stereo not drawn) | -36.7%
O=C(O)C(Cc1c[nH]c2ccccc12)NS(=O)(=O)c1cccc(Cl)c1Cl (stereo not drawn) | 21.1%
COCc1c(C(=O)NCc2ccccc2CN2CCCC2)oc2ccccc12 | -66.4%

SMILES | hERG current change (%, negative = inhibition) at 10uM
O=c1[nH]c(/C=C/c2cccc([N+](=O)[O-])c2)c([N+](=O)[O-])c(=O)[nH]1 | 7.62%
COCc1ccc(-c2c(-c3ccccc3OC)sc3cc4c(cc23)OCO4)cc1 | 15.6%
COc1ccccc1NC(=O)/C=C\C(=O)O | 19.2%
O=c1oc2ccccc2c(NCc2cccc(F)c2)c1[N+](=O)[O-] | -4.55%
COc1cccc(CNC(=O)c2cccs2)c1 | -4.23%
Cc1ccc(-c2ccc(S(=O)(=O)N3CC(C)OC(C)C3)cc2)cc1 (stereo not drawn) | 18.7%
CCOc1ccc(NC2c3ccccc3C(=O)N2Cc2ccc3c(c2)OCO3)cc1 (stereo not drawn) | -1.85%
CCOc1ccc(N(CC(=O)NCc2ccc3c(c2)OCO3)C(=O)c2csnn2)cc1 | -15.3%
CC(C)CCN(C(=O)C1CSC2(C)CCC(=O)N12)c1c(N)n(Cc2ccccc2)c(=O)[nH]c1=O (stereo not drawn) | 6.21%
Cc1ccc(-c2csc(NC(=O)c3cccc(C)c3)c2C(=O)O)cc1 | 27.6%
CCCc1cc(=O)oc2cc(OCC(=O)N3CCN(C(=O)C4COc5ccccc5O4)CC3)ccc12 (stereo not drawn) | -65.9%
C/C(=N\NC(N)=O)c1ccc(Cl)s1 | 19%
N#C/C(=C(/O)COC(=O)CSc1ccc(Cl)cc1)c1nc2ccccc2[nH]1 | 12.6%
CCC(C)n1c(-c2cccc(S(=O)(=O)N(CC)CC)c2)n[nH]c1=S (stereo not drawn) | 26.6%
CCN(CC)S(=O)(=O)c1ccc(N2CCCC2)c(NC(=O)c2c(-c3ccccc3)noc2C)c1 | 15.2%
O=C(c1cccc(Cl)c1)C1CCCN(Cc2cccc3cnccc23)C1 (stereo not drawn) | -32.7%
C#CCOc1ccc(/C=N/O)cc1Cl | -10.8%
Cc1ccc(N(C(=O)c2ccc(S(=O)(=O)N(C)C)cc2)C2C=CS(=O)(=O)C2)cc1 (stereo not drawn) | 13.6%
CN(Cc1ccccc1)CC(O)COc1ccc(CNCCc2cccnc2)cc1 (stereo not drawn) | -11.5%
COC(=O)c1ccc(N/N=C/c2cc([N+](=O)[O-])cc(OC)c2O)cc1 | 11.5%
CNC(=S)N(CCc1c(C)[nH]c2ccc(C)cc12)Cc1cc(OC)c(OC)c(OC)c1 | -12.1%
